From PubChem BioAssay AID485313 (National Center for Advancing Translational Sciences (NCATS), 2010)
The campaign covered roughly 320,000 compounds. About 7,600 (2.4%) were called active. Inconclusive results, whose numbers are uncertain, are shown with a selection of clear calls. Calls follow the shape of the dose curve; as a rule, active = well fitted activation curve with a large enough effect; inconclusive = small, poorly fitted or top-dose-only effect; inactive = no such curve, though single readings can be large or run the other way. A potency beside an inconclusive call is a rough fit, not a confirmed value.

assay: qHTS Assay for NPC1 Promoter Activators; details: Huh7 NPC1 promoter luciferase reporter, 24 h; series mostly up to 9.22 µM; activation: at the top concentration; also: nearly all actives have a fitted effect of over 60% in size; as to activation: % of control where 0% means no effect
Method in brief: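 Luminescence read-out of NPC1 promoter-driven luciferase in stably transfected Huh7 cells; compounds delivered in DMSO and left 24 h at 37C, 5% CO2, qHTS titration format.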
Potency is read from the fitted curve at half-maximal effect; tags tell the direction and shape of the fitted curve.

Potency, inconclusive:
COC(=O)Cn1ncc2c(C)n(Cc3ccccc3)c(C)c2c1=O 4.47 µM [activator, partial curve]
O=[N+]([O-])c1cccnc1NCCc1ccccc1 2.82 µM [activator, partial curve]
N#Cc1cnc2cc(-c3ccccc3)nn2c1N 3.16 µM [activator, single point]
O=C(OCc1ccccc1)c1ccc2c(c1)-c1ccccc1C2=O 3.16 µM [activator, single point]
O=C(Cc1coc2ccc3ccccc3c12)N1CCc2ccccc21 5.62 µM [activator, single point]
c1ccc(-c2noc(C34CC5CC(CC(C5)C3)C4)n2)nc1 3.55 µM [activator, partial curve]
Cn1nccc1C(=O)NC(=S)Nc1sc2c(c1C#N)CCCCC2 4.47 µM [activator, partial curve]
COc1ccc(OCC(=O)C2CC2)c(C#N)c1 2.82 µM [activator, partial curve]
Clc1ccc(-c2nnc(Sc3nc4ccccc4o3)c3ccccc23)cc1 3.98 µM [activator, partial curve]
O=C(Nc1nc2c(ccc3ccccc32)s1)c1ccco1 3.55 µM [activator, single point]
NC(=NCc1ccccc1)NC(=O)c1nc(Cl)c(N)nc1N 25.9 µM [activator, partial curve]
Cn1ccc(NC(=O)Nc2ccc(Cl)cc2Cl)n1 3.55 µM [activator, partial curve]
Cc1ccn2cc(-c3ccc(O)c(O)c3)nc2c1 5.62 µM [activator, single point]
O=C(CSc1ccccc1)NC1CCCCCC1 3.16 µM [activator, single point]
N#Cc1ccc(/C=C\c2nccc3c2[nH]c2ccccc23)cc1 3.55 µM [activator, single point]
Cc1cccc(N2CCN(C(=O)CN3C(=O)C4CC=CCC4C3=O)CC2)c1C (stereo not given) 2.82 µM [activator, partial curve]
CCN1CCN(c2ccc(NC(=O)c3cccc(F)c3)cc2Cl)CC1 3.16 µM [activator, partial curve]
O=C(c1ccc(OC(F)(F)F)cc1)c1ncc[nH]1 5.62 µM [activator, single point]
Oc1ccc(N=C/C=C/c2cccc(Br)c2)cc1-c1nc2ccccc2s1 3.16 µM [activator, partial curve]
Cc1ccc(NN=C2c3ccccc3-c3ccccc32)cc1 5.62 µM [activator, single point]
Clc1ccc(/C=N/Nc2ccccn2)cc1 3.16 µM [activator, single point]
O=C(NCCc1ccccc1)c1ccco1 3.16 µM [activator, partial curve]
Cc1cccc(NC(=S)NC(=O)c2cccs2)n1 5.01 µM [activator, single point]
O=C(Nc1cccc(O)c1)C(=O)Nc1ccccn1 3.55 µM [activator, single point]
Cc1ccc(Cn2cc(SCC(=O)Nc3nccs3)c3ccccc32)cc1 3.55 µM [activator, single point]
COc1ccc(CCNC(=O)C2CCN(C(=O)c3ccc(C(C)(C)C)cc3)CC2)cc1OC 3.98 µM [activator, partial curve]
S=c1[nH]nc(-c2cccs2)n1/N=C/c1cn(-c2ccccc2)nc1-c1cccs1 3.55 µM [activator, single point]
COc1ccc2[nH]c(C)c(C(=O)CN(C)CC3OCCO3)c2c1 1.26 µM [activator, single point]
Cc1cc(-c2nc3ncccc3o2)ccc1N 2.24 µM [activator, partial curve]
Cc1ccc(C(=O)Nc2ccc3ncccc3c2)cc1 0.199 µM [activator, full curve]
Cc1csc(NC(=O)c2ccc(C)o2)n1 3.16 µM [activator, single point]
Cc1cccc(Nc2nc(-c3sc(C)nc3C)cs2)c1 3.16 µM [activator, partial curve]
N#Cc1ccccc1COC(=O)c1ccc2c(c1)OCO2 3.16 µM [activator, single point]
NCc1ccc(-c2nc3ccccc3o2)cc1 2.24 µM [activator, partial curve]
CCOC(=O)c1csc(COc2ccccc2Cl)n1 0.631 µM [activator, full curve]
O=C(c1cc2cc(Cl)ccc2o1)N1CCCCCC1 3.55 µM [activator, single point]
CCOC(=O)N/N=C\c1ccccc1OC/C=C/c1ccccc1 5.01 µM [activator, partial curve, poor fit]
c1ccc(-c2nc(-c3cccnc3)cs2)cc1 2.82 µM [activator, partial curve]
COc1ccc(Cl)cc1C(=O)Nc1ccc(N(C)C(C)=O)cc1 3.55 µM [activator, partial curve]
CCOc1ccc2nc(NC(=O)Cc3cccs3)sc2c1 3.98 µM [activator, partial curve]
O=[N+]([O-])CC(=Nc1ccc(F)cc1)N/N=C\c1oc(O)c2ccccc12 3.98 µM [activator, single point]

Potency, inactive:
Cn1c(=O)c2c(nc(Oc3ccccc3)n2C)n(C)c1=O

Potency, active:
CCCC(=O)N(CCN1CCOCC1)c1nc2cc(C)c(C)cc2s1 2.51 µM
Cc1c(C(=O)NC2CCOC2)oc2c(F)cccc12 (stereo not given) 2.24 µM
Cc1ccc2c(c1)COc1c3ccc(C(=O)N4CCCCC4)cc3nn1-2 3.16 µM
c1ccc(-c2cc3nccc(-c4ccccn4)n3n2)cc1 2.51 µM
c1coc(CNc2nc3ccccc3s2)c1 1.58 µM
Cc1ccc(N/C=C/C(=O)c2ccco2)c(O)c1 3.16 µM
COc1cc(SC)ccc1C(=O)NNC(=O)c1cc(C)oc1C 3.16 µM
O=C(Nc1cccc(Cn2cccn2)c1)c1cc2c(s1)CCCC2 0.112 µM
Cc1cc(S(=O)(=O)NCc2ccccc2)ccc1OCC(=O)NCc1ccncc1 2.82 µM
CC(C)n1nnc(-c2ccc(OCc3ccccc3F)cc2)n1 2.82 µM
CCC(=O)N/C(N)=N/c1nc2ccccc2o1 3.98 µM
Cc1cccc(NC(=O)c2cc(-c3cc(C)c(C)cc3O)n[nH]2)c1 0.891 µM
CCC(NC(=O)c1cc(COc2ccc(Cl)cc2OC)on1)c1ccncc1 (stereo not given) 3.55 µM

activation, inactive:
Cc1ccc(C)c(NC(=O)C2CCCN2C(=O)NC2CCCCC2)c1 (stereo not given) -6.35%
Cc1ccc(-n2c(=O)cc(N3CCC(C)CC3)[nH]c2=O)cc1 -1.14%
C/C(=N\NC(=O)c1nnn(-c2nonc2N)c1-c1ccc2c(c1)OCO2)c1cccs1 -4.91%
Cc1cc(C)cc(N(C(=O)CNC(=O)c2ccco2)C(C(=O)NC2CCCCC2)c2ccncc2)c1 (stereo not given) -4.48%
COc1ccc(/C(C)=N/N2CCCCC2)c(O)c1 5.08%
Cc1ccc2nc(NC(=O)CN3CCN(c4ccccn4)CC3)sc2c1 0.738%
COc1cccc(CC(=O)Nn2c(C)nc3ccccc3c2=O)c1 -5.16%
O=C(NCc1cccnc1)c1cc(-c2ccccc2)on1 28.6%
CC1CCN(C(=O)CSc2nnc3c(n2)[nH]c2ccc(F)cc23)CC1 -3.68%
CCCCCCCNC(=O)C1(CC2CC(c3cccc(Br)c3)=NO2)CCN(C(=O)CCCCCBr)CC1 (stereo not given) -1.93%
Cc1ccccc1CCN1CCCC(CN(C)C(=O)c2ccc3ncccc3c2)C1 (stereo not given) 9.77%
Cc1ccc(CNC(=O)/C=C/c2c(Cl)cccc2Cl)cc1 1.06%
CC1=C(CCN2CCN(C3CCCC3)C(CCO)C2)C(C)(C)CCC1 (stereo not given) -2.69%
O=C(Nc1ccc(Oc2ccc(C(=O)O)c(C(=O)O)c2)cc1)c1cccs1 -2.43%
C[C@@H](NC(=O)c1nc[nH]c1C(=O)NCC(=O)OCc1ccccc1)c1ccccc1 -0.05%
O=C([C@@H]1CCCN1C(=O)c1cccs1)N1CCN(S(=O)(=O)c2cccc(F)c2)CC1 -0.138%
Cc1ccc2c(c1)[nH]c1c(N3CCN(Cc4ccc5c(c4)OCO5)CC3)ncnc12 -3.48%
CC(=O)NC(CC(=O)Nc1ccc(S(=O)(=O)NC2=NCCCCC2)cc1)c1ccccc1 (stereo not given) 0.796%
NC(=O)CCS(=O)(=O)CCN1CCN(S(=O)(=O)c2ccc3c(c2)CCC3)CC1 -0.837%
COc1cccc(CNC(=O)c2cccc(Br)c2)c1 9.16%
Cc1[nH]c2ccccc2c1SCC(=O)NNC(=O)Nc1ccc(OC(F)(F)F)cc1 1.37%
Cn1cc([N+](=O)[O-])c(C(=O)NCc2cc3ccccc3[nH]2)n1 0.0556%
CCOc1ccc(N2C(=O)c3ccccc3C2=O)cc1 -0.07%
CC(C)CCNC(=O)C1CCN(c2nnc(-n3cccc3)s2)CC1 5.16%
O=C(COC(=O)c1cc([N+](=O)[O-])ccc1NCCO)c1ccccc1 0.587%
